The whole screen tested about 390,000 compounds, of which about 17,000 (4.4%) were called active. The inconclusive results got no clear call from the source; some entries with a clear call stand among them for comparison. Calls come from the whole dose curve; as a rule, active = well fitted inhibition curve with a large enough effect; inconclusive = small, poorly fitted or top-dose-only effect; inactive = no such curve, though single readings can be large or run the other way. Where the call is inconclusive, the potency comes from a doubtful curve fit.
Each compound was assayed against Lysine-specific demethylase 4A (Homo sapiens) (UniProt O75164) (assay: qHTS Assay for Inhibitors of JMJD2A-Tudor Domain). Conditions: AlphaScreen JMJD2A-Tudor / H3K4me3 peptide binding; activity change, negative = inhibition: at 114 µM (top of the series).
Chain of UniProt O75164 (O75164 whole entry, looked up, the tested form may be a part): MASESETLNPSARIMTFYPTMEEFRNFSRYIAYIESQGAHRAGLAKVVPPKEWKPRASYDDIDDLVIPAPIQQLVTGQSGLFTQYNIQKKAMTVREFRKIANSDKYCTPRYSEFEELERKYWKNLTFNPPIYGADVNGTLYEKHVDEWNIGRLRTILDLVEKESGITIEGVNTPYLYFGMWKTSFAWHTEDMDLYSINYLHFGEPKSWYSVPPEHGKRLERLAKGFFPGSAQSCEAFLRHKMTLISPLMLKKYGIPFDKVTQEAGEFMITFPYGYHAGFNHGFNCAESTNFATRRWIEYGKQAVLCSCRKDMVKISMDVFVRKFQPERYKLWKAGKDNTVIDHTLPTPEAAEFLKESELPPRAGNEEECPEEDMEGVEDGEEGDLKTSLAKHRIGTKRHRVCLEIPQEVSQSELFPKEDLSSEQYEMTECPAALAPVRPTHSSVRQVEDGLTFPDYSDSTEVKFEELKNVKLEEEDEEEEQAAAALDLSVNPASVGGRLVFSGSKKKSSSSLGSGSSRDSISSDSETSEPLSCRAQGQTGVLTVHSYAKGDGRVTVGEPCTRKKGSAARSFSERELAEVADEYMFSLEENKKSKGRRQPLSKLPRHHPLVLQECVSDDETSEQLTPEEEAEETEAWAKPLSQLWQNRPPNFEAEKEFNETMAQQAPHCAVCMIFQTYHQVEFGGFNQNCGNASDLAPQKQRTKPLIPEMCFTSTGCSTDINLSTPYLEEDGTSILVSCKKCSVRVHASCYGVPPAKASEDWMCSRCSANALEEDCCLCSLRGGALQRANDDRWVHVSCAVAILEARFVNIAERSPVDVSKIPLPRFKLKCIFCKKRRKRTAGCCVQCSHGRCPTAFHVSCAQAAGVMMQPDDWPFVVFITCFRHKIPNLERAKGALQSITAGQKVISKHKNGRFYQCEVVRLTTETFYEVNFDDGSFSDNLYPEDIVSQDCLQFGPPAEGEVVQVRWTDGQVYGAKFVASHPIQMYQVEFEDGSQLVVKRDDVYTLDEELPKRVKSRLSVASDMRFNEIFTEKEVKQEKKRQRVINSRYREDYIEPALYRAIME
% is set by controls: 0 for no effect and ±100 for the full control effect; potency is the fitted concentration of half-maximal effect; tags give direction and shape of the fitted curve.
Note: nearly all actives have a fitted effect of over 50% in size.

SMILES	Potency	activity change, negative = inhibition
O=C(O)CSc1nc(-c2ccccc2)c(-c2ccccc2)[nH]1	inconclusive: 63.1 µM [inhibitor, partial curve]	
CC1(c2nnc(-c3ccncc3)o2)CC(c2cccc(Cl)c2)=NO1 (configuration not stated)		inactive: -24.6%
CC1CN(C(=S)NC(=O)c2cccc([N+](=O)[O-])c2)CC(C)O1 (configuration not stated)	inconclusive: 89.1 µM [inhibitor, single point]	
CCOC(=O)CSc1nc2c(sc(=S)n2-c2ccccc2)c(=O)n1-c1ccc(OC)cc1OC	inconclusive: 35.5 µM [inhibitor, partial curve]	
CCOC(=O)c1c(NC(=O)CSc2nnc(-c3ccco3)o2)sc(C(C)=O)c1C		inactive: -19.7%
COC(=O)c1cccc(-n2[nH]nnc2=S)c1	inconclusive: 89.1 µM [inhibitor, single point]	
COc1cc(OC)c2cc(C(=O)N/N=C/c3cccc(OC)c3O)[nH]c2c1		inactive: -19%
Cc1cc(OCC(O)CN2CCCC2)cc(C)c1Cl (configuration not stated)		inactive: -2.9%
Cc1cccnc1NC(=O)CCCc1c[nH]c2ccccc12		inactive: -17.1%
Cc1ccc(C(=O)Nc2ccccc2-c2ccccc2)cc1[N+](=O)[O-]	inconclusive: 63.1 µM [inhibitor, partial curve, poor fit]	
COc1ccc2[nH]c(=O)c(CN(Cc3nnnn3Cc3ccco3)C3CCCCC3)cc2c1	inconclusive: 89.1 µM [inhibitor, single point]	
CCN(CC)CCCN(C(=O)c1cccs1)c1nc(-c2ccc(OC)cc2)cs1	inconclusive: 50.1 µM [inhibitor, partial curve]	
CC(=O)c1ccc(S(=O)(=O)Nc2cccc(-c3cn4c(n3)SCC4)c2)cc1	inconclusive: 15.8 µM [inhibitor, full curve, poor fit]	
COc1ccc(C(=O)NCC(c2ccco2)N2CCc3ccccc32)cc1OC (configuration not stated)	inconclusive: 63.1 µM [inhibitor, partial curve]	
N#Cc1ccc(NCCc2ccccn2)c([N+](=O)[O-])c1		inactive: -17.9%
CCCOc1ccccc1N/C(N)=N/c1nc(C)cc(C)n1	inconclusive: 44.7 µM [inhibitor, partial curve]	
COc1ccc(N=C2O/C(=C/c3sc(=S)n(CC4CCCO4)c3O)N=C2C#N)cc1 (configuration not stated)	inconclusive: 12.6 µM [inhibitor, full curve, poor fit]	
COc1ccc(N2CCN(CCCNC(=O)Cn3c(-c4cccs4)cc4ccccc43)CC2)cc1	active: 17.8 µM	
CC(C)COc1ccc(C(=O)NCc2ccco2)cc1	inconclusive: 89.1 µM [inhibitor, single point]	
O=C(NCc1nc(-c2ccc(C(F)(F)F)cc2)no1)c1cccs1	inconclusive: 28.2 µM [inhibitor, full curve]	
COc1cc(C(=O)OCC(=O)N(CC(C)C)C2CCS(=O)(=O)C2)cc(OC)c1C (configuration not stated)	inconclusive: 79.4 µM [inhibitor, partial curve]	
N#C/C(=C(/O)COC(=O)c1ccc(C#N)cc1)c1nc2ccccc2s1	inconclusive: 39.8 µM [inhibitor, partial curve]	
Fc1ccc(/C=N/NC2=Nc3cccc4cccc2c34)cc1	inconclusive: 10 µM [inhibitor, full curve]	
OC(c1ccccn1)c1c[nH]c2ccccc12 (configuration not stated)	inconclusive: 25.1 µM [inhibitor, full curve, poor fit]	

SMILES	Potency	activity change, negative = inhibition
CN(C)c1ccc2c(c1[N+](=O)[O-])Cc1ccccc1-2	active: 15.8 µM	
O=C(Nc1nc(-c2ccc(F)c(F)c2)cs1)c1cc([N+](=O)[O-])ccc1N1CCOCC1	inconclusive: 12.6 µM [inhibitor, full curve, poor fit]	
Nc1cc(C(=O)OCC(=O)N2CCCC2=O)ccc1Cl		inactive: -16.1%
Cc1cc(C)c2cc(C#N)c(NCCNC(=S)NCCCN3CCOCC3)nc2c1	inconclusive: 100 µM [inhibitor, partial curve]	
FC(F)(F)c1cccc(Cc2noc(CN3C[C@@H]4CCC[C@H]3C4)n2)c1		inactive: -8.51%
Cc1nnc(NC(=O)CSc2ccc(-c3ccco3)nn2)s1		inconclusive: -44.6% [inhibitor]
COc1ccc(C2CC(c3ccccc3)=NN2C(=O)CCCC(=O)O)cc1 (configuration not stated)		inactive: -18.9%
N#Cc1ccccc1Sc1ccccc1C(=O)NCC(c1ccco1)N1CCCC1 (configuration not stated)	inconclusive: 28.2 µM [inhibitor, full curve]	
CC(C)(C)c1ccc(C(=O)Nc2ccc(N3CCOCC3)cc2)cc1		inactive: -24.6%
O=C(CCCN1C(=O)/C(=C/c2cccc(Br)c2)SC1=S)NCCCN1CCOCC1	active: 44.7 µM	
Cn1c(N)cc(=O)[nH]c1=S	inconclusive: 20 µM [inhibitor, partial curve]	
Cc1ccc2onc(CC(=O)Nc3ccc(C(C)C)cc3)c2c1		inactive: -13.8%
Brc1ccc(-c2ccc(/C=N/Nc3nc4ccccc4[nH]3)o2)cc1	inconclusive: 11.2 µM [inhibitor, full curve, poor fit]	
CCCCCOC(=O)Cn1c(=O)c2c(nc(N3CCOCC3)n2C)n(C)c1=O	inconclusive: 14.1 µM [inhibitor, partial curve, poor fit]	
O=C(N/N=C/c1cccc([N+](=O)[O-])c1)c1ccc(Br)cc1	inconclusive: 1 µM [inhibitor, full curve, poor fit]	
COc1cccc(CNC(=O)c2cc3c(=O)oc4ccc(C)cc4c3s2)c1		inactive: -8.08%
CC(=O)Cc1nsc(Nc2ccc(C)cc2)n1	inconclusive: 22.4 µM [inhibitor, partial curve]	
CCc1c(C2(O)CCCCC2)[nH]c2cnccc12		inactive: -11%
O=C(O)c1cccc(N2C(=O)/C(=C/c3ccc(SCc4ccc(Cl)cc4)o3)SC2=S)c1	active: 44.7 µM	
N#CC(OC(=O)c1ccccc1)c1cccc([N+](=O)[O-])c1 (configuration not stated)	inconclusive: 89.1 µM [inhibitor, partial curve, poor fit]	
CC(C)c1ccc(NC(=S)Nc2ccc3cn[nH]c3c2)cc1		inactive: -30.8%
CCCCn1c(-c2ccc(F)c(F)c2)nc2cc3[nH]c(=O)c(C(C)C)nc3cc21	inconclusive: 100 µM [inhibitor, partial curve, poor fit]	
COc1ccc(OC)c(N/C(C)=C/C(=O)c2ccncc2)c1	inconclusive: 50.1 µM [inhibitor, partial curve]	
Cc1ccc(C(=O)C2CCN(CC(=O)Nc3ccc(N(C)C)cc3)CC2)cc1	active: 44.7 µM	

SMILES	Potency	activity change, negative = inhibition
CCOC(=O)C1CCCN(c2oc(-c3ccc(OC)cc3)nc2C#N)C1 (configuration not stated)	inconclusive: 56.2 µM [inhibitor, partial curve]	
O=C(CNC(=O)c1ccccc1O)N/N=C/c1cc(Br)ccc1OC(=O)/C=C/c1ccco1	inconclusive: 63.1 µM [inhibitor, partial curve, poor fit]	
Cc1ccc(COC(=O)c2[nH]c3c(c2C)C(=O)CC(c2ccc(Cl)cc2)C3)cc1 (configuration not stated)		inactive: 1.37%
CC1CCN(C(=O)Nc2ccc3nc(-c4ccco4)c(-c4ccco4)nc3c2)CC1	active: 12.6 µM	
O=C(OCC(=O)N1CCCC1=O)c1nc(Cl)c(Cl)c(Cl)c1Cl	inconclusive: 56.2 µM [inhibitor, partial curve, poor fit]	
CCN(CC)c1ccc(/C=N/N2CCN(c3ccccn3)CC2)cc1		inactive: -13.9%
CC1(C)CC(N=Cc2c(O)n(Cc3ccc4c(c3)OCO4)c(=O)c3ccccc23)CC(C)(C)N1	inconclusive: 20 µM [inhibitor, full curve]	
O=C(O)CSc1c2ccccc2cc2ccccc12	inconclusive: 100 µM [inhibitor, partial curve]	
O=c1[nH]nc(N=Nc2c(O)[nH]c3ccc(F)cc23)c(=O)[nH]1		inactive: -9.56% [at 11.4 µM]
COc1ccc(-c2cc(C(=O)Nc3c(C)nn(Cc4ccccc4C)c3C)no2)cc1		inactive: -8.87%
CN(C)S(=O)(=O)c1ccc(NC(=O)COC(=O)c2ccccn2)cc1	inconclusive: 79.4 µM [inhibitor, partial curve]	
CCN1C(=O)/C(=C2/C=Cc3cc(C)ccc3N2CC)N(C)C1=S	active: 15.8 µM	
COc1ccc(NCc2ccc3c(c2)OCO3)cc1Cl	active: 44.7 µM	
COc1ccc2nc(-n3c(O)c(C4=c5ccccc5=NC4=O)[nH]c3=S)sc2c1	inconclusive: 14.1 µM [inhibitor, full curve]	
CCCCNC(=O)Cn1c(SCc2cccc(F)c2)nc2ccncc21		inactive: -11.5% [at 57.1 µM]
S=c1nc(-c2cc(Cl)ccc2Cl)[nH][nH]1	active: 5.01 µM	
CCC(C(=O)Nc1ccccc1Cl)n1nc(C)c2c(C)n(-c3ccccc3)nc2c1=O (configuration not stated)	inconclusive: 17.8 µM [inhibitor, full curve]	
O=[N+]([O-])c1cc(/C=N/N/C(=N/c2ccccn2)c2ccccn2)ccc1O	active: 79.4 µM	
CCOc1cc(/C=N/N=C2/NC(=O)C(CC(=O)O)S2)ccc1OCc1ccccc1Cl (configuration not stated)	inconclusive: 70.8 µM [inhibitor, single point]	
CCOC(=O)C1Nc2ccc(C(=O)O)cc2C2C=CCC12 (configuration not stated)	active: 3.98 µM	
CCc1ccc2oc(-c3ccc(NC(C)=O)cc3)nc2c1	inconclusive: 89.1 µM [inhibitor, partial curve]	
O=S(=O)(Nc1ccc(N2CCCCC2)cc1)c1cccs1	inconclusive: 50.1 µM [inhibitor, partial curve]	
COc1ccc(NC(=O)C(OC(=O)Cn2cnc3c2c(=O)n(C)c(=O)n3C)c2ccccc2)cc1Cl (configuration not stated)		inactive: -14.9%
COc1ccc(CN2C(=O)N(c3ccc(OC)cc3)C(=O)C2CC(=O)Nc2ccccc2)cc1 (configuration not stated)	inconclusive: 100 µM [inhibitor, partial curve, poor fit]	
